# Experimental data reported in PMC6602471.
# The other results are listed elsewhere or left out. At the low end of the ranking the order means little.
# Target: T1, ELK1 (UniProt P19419)
# T1 sequence: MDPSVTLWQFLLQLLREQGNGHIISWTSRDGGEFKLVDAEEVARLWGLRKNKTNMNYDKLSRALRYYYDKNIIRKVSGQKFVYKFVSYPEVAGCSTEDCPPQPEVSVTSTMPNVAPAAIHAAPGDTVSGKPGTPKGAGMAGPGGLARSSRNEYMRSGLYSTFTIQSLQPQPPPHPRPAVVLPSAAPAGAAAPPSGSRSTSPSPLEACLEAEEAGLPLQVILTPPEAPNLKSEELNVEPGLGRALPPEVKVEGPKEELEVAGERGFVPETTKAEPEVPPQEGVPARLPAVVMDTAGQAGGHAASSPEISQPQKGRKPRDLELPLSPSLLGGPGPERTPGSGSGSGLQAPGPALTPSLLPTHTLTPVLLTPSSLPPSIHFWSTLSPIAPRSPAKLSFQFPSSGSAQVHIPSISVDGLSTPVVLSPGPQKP
# Assay: custom PBM
# Details: custom protein-binding microarray; buffer, salt, pH and temperature not stated; high values mean tight binding; double strand, one strand shown
row,Sequence,binding signal (log fluorescence intensity)
1,GGAAAAAAGCCCAGGGTAACACCGGAAGTGGGCTTAGTCTTGATTCGCTTGACGCTGCTG,10.8
2,CACATTTTTTACAGTAATGTAGCACGCGTAACTCCTGTCTTGATTCGCTTGACGCTGCTG,8.86
3,GTGTATAGGATCCCATCCAAGACACGTGTTAAAATGGTCTTGATTCGCTTGACGCTGCTG,8.91
4,GTGTATAGGATCCCATCCAACACACGTGTTAAAGTGGTCTTGATTCGCTTGACGCTGCTG,8.86
5,CACAATTTGTACAGTAATGTAGCACGCGTAACTCCTGTCTTGATTCGCTTGACGCTGCTG,8.91
6,TAAAGGGAAGACGGTTGTGGTAGCTCCGGGTATTAAGTCTTGATTCGCTTGACGCTGCTG,9.01
7,GTGTATAGGCTCCCATCCAACACACGTGTTAAAATGGTCTTGATTCGCTTGACGCTGCTG,8.75
8,TACTGACTTATATGTGCGAATGCACATGAATAGACCGTCTTGATTCGCTTGACGCTGCTG,8.89
9,GTGTATAGGATCCCATCCAACACACGTGTAAAAATGGTCTTGATTCGCTTGACGCTGCTG,8.87
10,TCCGGCTACCAGCTCCACCCACTTCAGGCCTCGTAGGTCTTGATTCGCTTGACGCTGCTG,8.87
11,CACAATTTTTACAGTAATGTTGCACGCGTAACTCCTGTCTTGATTCGCTTGACGCTGCTG,8.7
12,TAAAGGGAAGACGGTTGTGGGAGTTCCGGGTATTAAGTCTTGATTCGCTTGACGCTGCTG,11
13,GGGTATAGGATCCCATCCAACACACGTGTTAAAATGGTCTTGATTCGCTTGACGCTGCTG,8.93
14,GGAAAAAGGCCCAGGGTAACACCGGAAGAGGGCTTAGTCTTGATTCGCTTGACGCTGCTG,10.2
15,TGTCGGGTAAGGGAAGGTAGATCACGTGAATGAAAAGTCTTGATTCGCTTGACGCTGCTG,8.89
16,TGTCGGGTAAGGGAATGTAGAACACGTGAATGAAAAGTCTTGATTCGCTTGACGCTGCTG,8.96
17,GATTAATTTCTGCCCTTATTCGCACGTGCCATAACGGTCTTGATTCGCTTGACGCTGCTG,8.95
18,CGGAAGTGTCGTAAACGTCGGATATCCGCTTCTTCTGTCTTGATTCGCTTGACGCTGCTG,11.5
19,CTGGGACTTGACACAACTCTGCCACGTGGGTCGTTTGTCTTGATTCGCTTGACGCTGCTG,8.99
20,TGTCGGGTGAGGGAATGTAGATCACGTGAATGAAAAGTCTTGATTCGCTTGACGCTGCTG,9
21,GGAAAAAGGCCCAGGGTAAGACCGGAAGTGGGCTTAGTCTTGATTCGCTTGACGCTGCTG,10.9

row,Sequence,binding signal (log fluorescence intensity)
1,GGAAAAAGGCCCAGGGTAACACCGGAAGTGGGCTTTGTCTTGATTCGCTTGACGCTGCTG,11.3
2,TCCGGCTACCAGCTCCACCCACTTCAGGCCTTGTACGTCTTGATTCGCTTGACGCTGCTG,8.77
3,TGTCGGATAAGGGAATGTAGATCACGTGAATGAAAAGTCTTGATTCGCTTGACGCTGCTG,8.81
4,TGTCGGGTAAGGGAATGTAGATCAGGTGAATGAAAAGTCTTGATTCGCTTGACGCTGCTG,8.98
5,CGGAAGTGTCGTAAACGTCCGATATCCGGTTCTTCTGTCTTGATTCGCTTGACGCTGCTG,12.3
6,CAGCATAGGACTTCTTTCCTGAAGCAATTGATAACCGTCTTGATTCGCTTGACGCTGCTG,8.97
7,GCTGCTGCGGTGCATACCCCACCGGATGTGGCCCCGGTCTTGATTCGCTTGACGCTGCTG,10.2
8,TACTGACTTATATATGCGAATGCACTTGAATAGACCGTCTTGATTCGCTTGACGCTGCTG,8.94
9,GCTGCTGCGGTGCATACCCCACCGGATGTGACCCCAGTCTTGATTCGCTTGACGCTGCTG,10.3
10,TGTCGGGTAAGGGAATGTAGATCACGTGATTGAAAAGTCTTGATTCGCTTGACGCTGCTG,8.86
11,GATTAATTTCTGCCCTTATTCGCACGTGGCATAACAGTCTTGATTCGCTTGACGCTGCTG,9.09
12,GCTGCTGCGGTGCATACCCCACCGGATGTCACCCCGGTCTTGATTCGCTTGACGCTGCTG,10.1
13,CAGCATAGGACTTCTTCCGTGAAGCAATTGATAACCGTCTTGATTCGCTTGACGCTGCTG,10.8
14,CACAATTTTAACAGTAATGTAGCACGCGTAACTCCTGTCTTGATTCGCTTGACGCTGCTG,8.9
15,CTGGGACTTGACCCAACTCAGCCACGTGGGTCGTTTGTCTTGATTCGCTTGACGCTGCTG,8.78
16,CACAATGTTTACAGTAATGTAGCACGCGTAACTCCTGTCTTGATTCGCTTGACGCTGCTG,9
17,GATTAATTGCTGCCCTTATTCGCACGTGCCATAACAGTCTTGATTCGCTTGACGCTGCTG,8.88
18,AACAATTTTTACAGTAATGTAGCACGCGTAACTCCTGTCTTGATTCGCTTGACGCTGCTG,8.92
19,GGCAAAAGGCCCAGGGTAACACCGGAAGTGGGCTTAGTCTTGATTCGCTTGACGCTGCTG,10.6
20,CGGAAGAGTCGTAAACGTCGGATATCCGGTTCTTCTGTCTTGATTCGCTTGACGCTGCTG,12.3
21,TAAAGGGAAGACGGTTGTGGTAGGTCCGGGTATTAAGTCTTGATTCGCTTGACGCTGCTG,8.98

row,Sequence,binding signal (log fluorescence intensity)
1,TGTCGGGTAAGCGAATGTAGATCACGTGAATGAAAAGTCTTGATTCGCTTGACGCTGCTG,9
2,GCTGCTGCGGTCCATACCCCACCGGATGTGACCCCGGTCTTGATTCGCTTGACGCTGCTG,10.3
3,TATTGACTTATATATGCGAATGCACATGAATAGACCGTCTTGATTCGCTTGACGCTGCTG,8.8
4,CAGCATAGGACTGCTTCCCTGAAGCAATTGATAACCGTCTTGATTCGCTTGACGCTGCTG,8.86
5,CTGGGACTTGACCCAACTCTGCCACGTGGGTCCTTTGTCTTGATTCGCTTGACGCTGCTG,8.82
6,TACTAACTTATATATGCGAATGCACATGAATAGACCGTCTTGATTCGCTTGACGCTGCTG,8.93
7,TACTGACTTATATATGCGAATTCACATGAATAGACCGTCTTGATTCGCTTGACGCTGCTG,8.87
8,GATTAATTTCTGCCCTTATTCGCCCGTGCCATAACAGTCTTGATTCGCTTGACGCTGCTG,8.71
9,CAAAGGGAAGACGGTTGTGGTAGTTCCGGGTATTAAGTCTTGATTCGCTTGACGCTGCTG,11.3
10,GAGCATAGGACTTCTTCCCTGAAGCAATTGATAACCGTCTTGATTCGCTTGACGCTGCTG,8.98
11,TCCGGCTACCAGCTCCACCGACTTCAGGCCTTGTAGGTCTTGATTCGCTTGACGCTGCTG,8.85
12,GATTCATTTCTGCCCTTATTCGCACGTGCCATAACAGTCTTGATTCGCTTGACGCTGCTG,8.97
13,GTTTATAGGATCCCATCCAACACACGTGTTAAAATGGTCTTGATTCGCTTGACGCTGCTG,8.93
14,CACAATTTTTGCAGTAATGTAGCACGCGTAACTCCTGTCTTGATTCGCTTGACGCTGCTG,8.85
15,GTGCATAGGATCCCATCCAACACACGTGTTAAAATGGTCTTGATTCGCTTGACGCTGCTG,9
16,GGAAAAAGGCCTAGGGTAACACCGGAAGTGGGCTTAGTCTTGATTCGCTTGACGCTGCTG,10.9
17,TGTCGGGTAAGGGAATGTAGATCACGTGAATGAAAGGTCTTGATTCGCTTGACGCTGCTG,8.8
18,GTGTATAGGATCCCATCGAACACACGTGTTAAAATGGTCTTGATTCGCTTGACGCTGCTG,8.89
19,TCCGGCTACCAGCACCACCCACTTCAGGCCTTGTAGGTCTTGATTCGCTTGACGCTGCTG,8.9
20,GATTAATTTCTGCCCATATTCGCACGTGCCATAACAGTCTTGATTCGCTTGACGCTGCTG,8.82
21,GCTGCTGCGGTGCATACCCCACCGGCTGTGACCCCGGTCTTGATTCGCTTGACGCTGCTG,9.02

row,Sequence,binding signal (log fluorescence intensity)
1,TGTCGGGTAAGGGAATCTAGATCACGTGAATGAAAAGTCTTGATTCGCTTGACGCTGCTG,8.95
2,GATTAATTTCTGCCCTTATTCGCACGGGCCATAACAGTCTTGATTCGCTTGACGCTGCTG,8.84
3,CGGAAGTGTCGTAAACGTTGGATATCCGGTTCTTCTGTCTTGATTCGCTTGACGCTGCTG,11.4
4,GCTGCTGCGGTGCCTACCCCACCGGATGTGACCCCGGTCTTGATTCGCTTGACGCTGCTG,10.3
5,CAGCATATGACTTCTTCCCTGAAGCAATTGATAACCGTCTTGATTCGCTTGACGCTGCTG,8.83
6,CACAATTTTTACAGTAATGTAGCACGCGTAACTGCTGTCTTGATTCGCTTGACGCTGCTG,8.98
7,GATTAATTTCTGCCCTTAGTCGCACGTGCCATAACAGTCTTGATTCGCTTGACGCTGCTG,8.96
8,CACAATTTTTACAGTAATGTAGCACGCGTAACTACTGTCTTGATTCGCTTGACGCTGCTG,8.82
9,TGTCGGGTAAGGGAATGTAGATCACGTGAATGAACAGTCTTGATTCGCTTGACGCTGCTG,8.99
10,GCTGCTGCGGTGCATAGCCCACCGGATGTGACCCCGGTCTTGATTCGCTTGACGCTGCTG,10.4
11,CTGGGACTTGACCTAACTCTGCCACGTGGGTCGTTTGTCTTGATTCGCTTGACGCTGCTG,8.92
12,CCTGCTGCGGTGCATACCCCACCGGATGTGACCCCGGTCTTGATTCGCTTGACGCTGCTG,10.2
13,CGGAAGTGTTGTAAACGTCGGATATCCGGTTCTTCTGTCTTGATTCGCTTGACGCTGCTG,12
14,TACTGACTTATATATGCTAATGCACATGAATAGACCGTCTTGATTCGCTTGACGCTGCTG,8.92
15,GCAGCTGCGGTGCATACCCCACCGGATGTGACCCCGGTCTTGATTCGCTTGACGCTGCTG,10.1
16,TGTCGGGTAAGGGAATGTAGATTACGTGAATGAAAAGTCTTGATTCGCTTGACGCTGCTG,8.82
17,GATTAATTTCTGCCCTTATTCGCATGTGCCATAACAGTCTTGATTCGCTTGACGCTGCTG,8.8
18,TCCGGCTACCAGCTCCACCCACTTCCGGCCTTGTAGGTCTTGATTCGCTTGACGCTGCTG,12.3
